One assay concerns the target ^mycMiro1 (UniProt Q8IXI2). In words: co-IP; rabbit anti-Myc beads (Sigma) on lysates of co-transfected COS7 cells; lysis buffer 50 mM HEPES pH 7.5, 0.5% Triton X-100, 150 mM NaCl, 1 mM EDTA; Western blot.
Another assay concerns the target T1, ^GFPTRAK2 (mouse) (UniProt Q6P9N8).
T1 sequence: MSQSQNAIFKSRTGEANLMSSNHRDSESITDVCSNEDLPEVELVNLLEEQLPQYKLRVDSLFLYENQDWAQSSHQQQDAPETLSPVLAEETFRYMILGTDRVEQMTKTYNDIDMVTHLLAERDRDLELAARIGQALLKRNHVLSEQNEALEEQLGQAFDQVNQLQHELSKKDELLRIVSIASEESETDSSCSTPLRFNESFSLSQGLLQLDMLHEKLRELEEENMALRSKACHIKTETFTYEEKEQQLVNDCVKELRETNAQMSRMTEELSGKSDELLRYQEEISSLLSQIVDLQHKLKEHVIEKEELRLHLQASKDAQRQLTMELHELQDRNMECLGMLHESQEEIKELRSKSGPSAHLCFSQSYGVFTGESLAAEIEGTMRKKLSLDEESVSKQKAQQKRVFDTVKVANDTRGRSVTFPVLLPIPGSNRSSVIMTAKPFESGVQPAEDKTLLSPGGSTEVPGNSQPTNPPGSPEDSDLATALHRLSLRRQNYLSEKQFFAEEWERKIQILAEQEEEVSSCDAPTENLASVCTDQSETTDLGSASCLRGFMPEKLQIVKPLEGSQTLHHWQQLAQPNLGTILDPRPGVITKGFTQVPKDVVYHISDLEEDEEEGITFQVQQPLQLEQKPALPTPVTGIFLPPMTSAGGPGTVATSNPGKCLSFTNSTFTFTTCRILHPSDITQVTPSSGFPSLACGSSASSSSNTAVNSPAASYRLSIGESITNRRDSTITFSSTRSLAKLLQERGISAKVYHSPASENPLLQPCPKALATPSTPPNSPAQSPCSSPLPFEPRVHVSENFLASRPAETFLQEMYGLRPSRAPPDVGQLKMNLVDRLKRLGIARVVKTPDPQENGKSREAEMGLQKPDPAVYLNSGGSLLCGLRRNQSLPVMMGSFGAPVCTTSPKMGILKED
In words: co-IP; GFP trap beads (Chromotek) on lysates of co-transfected COS7 cells; lysis buffer 50 mM HEPES pH 7.5, 0.5% Triton X-100, 150 mM NaCl, 1 mM EDTA; Western blot. For orientation: A western blot detects proteins with antibodies after separation by electrophoresis.

Amino acid sequences for entries named in this document (tags omitted).
UniProt Q8IXI2: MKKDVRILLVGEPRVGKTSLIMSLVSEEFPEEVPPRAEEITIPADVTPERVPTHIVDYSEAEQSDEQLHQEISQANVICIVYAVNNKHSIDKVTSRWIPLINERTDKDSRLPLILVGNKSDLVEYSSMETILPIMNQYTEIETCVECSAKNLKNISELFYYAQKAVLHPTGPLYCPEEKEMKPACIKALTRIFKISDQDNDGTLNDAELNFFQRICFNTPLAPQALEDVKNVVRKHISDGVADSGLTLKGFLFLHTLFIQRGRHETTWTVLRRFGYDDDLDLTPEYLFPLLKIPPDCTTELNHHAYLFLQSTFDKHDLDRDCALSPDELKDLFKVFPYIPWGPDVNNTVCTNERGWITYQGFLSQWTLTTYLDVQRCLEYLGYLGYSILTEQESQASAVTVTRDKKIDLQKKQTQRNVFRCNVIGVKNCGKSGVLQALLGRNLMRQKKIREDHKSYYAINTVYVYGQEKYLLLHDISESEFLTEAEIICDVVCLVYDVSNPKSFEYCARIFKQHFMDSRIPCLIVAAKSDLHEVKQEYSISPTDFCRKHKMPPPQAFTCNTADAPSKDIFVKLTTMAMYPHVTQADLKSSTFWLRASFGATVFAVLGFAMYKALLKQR

Assay [1] has as its target endogenous Miro1 (SH-SY5Y cells) (human (endogenous in SH-SY5Y)) (UniProt Q8IXI2). In words: proximity ligation; Duolink on fixed SH-SY5Y cells; anti-Rhot1 (HPA010687) and anti-DISC1 (14F2), both 1:200; anti-DISC1 alone as control.
The target in assay [2] is T2, Untagged human DISC1 (human) (UniProt Q9NRI5).
T2 sequence: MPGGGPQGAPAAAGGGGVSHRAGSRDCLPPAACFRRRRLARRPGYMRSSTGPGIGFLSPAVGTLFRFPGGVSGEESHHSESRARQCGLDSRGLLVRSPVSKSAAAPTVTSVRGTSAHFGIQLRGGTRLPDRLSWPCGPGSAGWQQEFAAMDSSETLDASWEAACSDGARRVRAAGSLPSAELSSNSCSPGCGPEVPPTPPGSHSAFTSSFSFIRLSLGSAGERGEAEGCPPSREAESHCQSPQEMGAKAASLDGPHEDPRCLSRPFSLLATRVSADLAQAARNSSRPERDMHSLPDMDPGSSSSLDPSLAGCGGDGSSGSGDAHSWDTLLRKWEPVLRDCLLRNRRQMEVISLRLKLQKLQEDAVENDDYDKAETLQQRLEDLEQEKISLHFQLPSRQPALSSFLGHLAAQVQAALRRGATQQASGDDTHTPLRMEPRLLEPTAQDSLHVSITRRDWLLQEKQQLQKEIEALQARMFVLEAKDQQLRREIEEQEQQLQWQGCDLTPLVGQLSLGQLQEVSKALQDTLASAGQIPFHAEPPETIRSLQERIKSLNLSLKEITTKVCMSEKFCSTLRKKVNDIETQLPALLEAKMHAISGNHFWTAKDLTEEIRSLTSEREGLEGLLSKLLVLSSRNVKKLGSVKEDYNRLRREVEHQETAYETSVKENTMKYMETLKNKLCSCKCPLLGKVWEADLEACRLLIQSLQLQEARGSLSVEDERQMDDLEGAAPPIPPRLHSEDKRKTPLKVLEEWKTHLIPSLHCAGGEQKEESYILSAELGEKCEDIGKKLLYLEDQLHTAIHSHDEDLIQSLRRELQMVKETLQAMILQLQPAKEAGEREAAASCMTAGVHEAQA
Kind of assay: co-IP; DISC1 immunoprecipitated, TRAK2 detected; data not shown.

Results are given in words; binding and its absence hold for the method and conditions named. Binding seen in cells or lysates may run through a third protein. Some binding calls cover weakened binding; strength is not graded here. For some assays here: Where a sequence is shown, tags or fusion partners need not be part of it.

B1: ^HADISC1 150–854 (domain or fragment, UniProt Q9NRI5 150-854)
chain: MDSSETLDASWEAACSDGARRVRAAGSLPSAELSSNSCSPGCGPEVPPTPPGSHSAFTSSFSFIRLSLGSAGERGEAEGCPPSREAESHCQSPQEMGAKAASLDGPHEDPRCLSRPFSLLATRVSADLAQAARNSSRPERDMHSLPDMDPGSSSSLDPSLAGCGGDGSSGSGDAHSWDTLLRKWEPVLRDCLLRNRRQMEVISLRLKLQKLQEDAVENDDYDKAETLQQRLEDLEQEKISLHFQLPSRQPALSSFLGHLAAQVQAALRRGATQQASGDDTHTPLRMEPRLLEPTAQDSLHVSITRRDWLLQEKQQLQKEIEALQARMFVLEAKDQQLRREIEEQEQQLQWQGCDLTPLVGQLSLGQLQEVSKALQDTLASAGQIPFHAEPPETIRSLQERIKSLNLSLKEITTKVCMSEKFCSTLRKKVNDIETQLPALLEAKMHAISGNHFWTAKDLTEEIRSLTSEREGLEGLLSKLLVLSSRNVKKLGSVKEDYNRLRREVEHQETAYETSVKENTMKYMETLKNKLCSCKCPLLGKVWEADLEACRLLIQSLQLQEARGSLSVEDERQMDDLEGAAPPIPPRLHSEDKRKTPLKVLEEWKTHLIPSLHCAGGEQKEESYILSAELGEKCEDIGKKLLYLEDQLHTAIHSHDEDLIQSLRRELQMVKETLQAMILQLQPAKEAGEREAAASCMTAGVHEAQA
For B1, the binding entry with ^mycMiro1 and with ^GFPTRAK2 (mouse) was “binds” in each case.

B2: endogenous DISC1 (SH-SY5Y cells) (protein, UniProt Q9NRI5 1-854)
chain: T2 sequence
Turning to B2, in assay [1], the binding result is recorded as “binds”.

B3: ^HADISC1-(313–854) (domain or fragment, UniProt Q9NRI5 313-854)
chain: GGDGSSGSGDAHSWDTLLRKWEPVLRDCLLRNRRQMEVISLRLKLQKLQEDAVENDDYDKAETLQQRLEDLEQEKISLHFQLPSRQPALSSFLGHLAAQVQAALRRGATQQASGDDTHTPLRMEPRLLEPTAQDSLHVSITRRDWLLQEKQQLQKEIEALQARMFVLEAKDQQLRREIEEQEQQLQWQGCDLTPLVGQLSLGQLQEVSKALQDTLASAGQIPFHAEPPETIRSLQERIKSLNLSLKEITTKVCMSEKFCSTLRKKVNDIETQLPALLEAKMHAISGNHFWTAKDLTEEIRSLTSEREGLEGLLSKLLVLSSRNVKKLGSVKEDYNRLRREVEHQETAYETSVKENTMKYMETLKNKLCSCKCPLLGKVWEADLEACRLLIQSLQLQEARGSLSVEDERQMDDLEGAAPPIPPRLHSEDKRKTPLKVLEEWKTHLIPSLHCAGGEQKEESYILSAELGEKCEDIGKKLLYLEDQLHTAIHSHDEDLIQSLRRELQMVKETLQAMILQLQPAKEAGEREAAASCMTAGVHEAQA
As to B3, the binding entry in the assay with ^mycMiro1 and in the assay with ^GFPTRAK2 (mouse) was “no binding” each time.

B4: ^GFPTRAK2 (protein, UniProt Q6P9N8 1-913)
chain: T1 sequence
Turning to B4, the binding result in assay [2] is listed as “binds”.

B5: ^HADISC1-(1–301) (domain or fragment, UniProt Q9NRI5 1-301)
chain: MPGGGPQGAPAAAGGGGVSHRAGSRDCLPPAACFRRRRLARRPGYMRSSTGPGIGFLSPAVGTLFRFPGGVSGEESHHSESRARQCGLDSRGLLVRSPVSKSAAAPTVTSVRGTSAHFGIQLRGGTRLPDRLSWPCGPGSAGWQQEFAAMDSSETLDASWEAACSDGARRVRAAGSLPSAELSSNSCSPGCGPEVPPTPPGSHSAFTSSFSFIRLSLGSAGERGEAEGCPPSREAESHCQSPQEMGAKAASLDGPHEDPRCLSRPFSLLATRVSADLAQAARNSSRPERDMHSLPDMDPGS
Take B5: the binding result with ^mycMiro1 and in the assay with ^GFPTRAK2 (mouse) was “binds” each time.
